The results in this text go back to PMC5892938.

The list shows a part of the results. At the low end of the ranking, values are background and their order means little.

The experiment addresses GST-SBP-SLBP (stem-loop binding protein) (UniProt Q14493). Nature of the experiment: targeted RNA Bind-n-Seq.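 Also: DESeq read counts versus GST-SBP nonspecific binding control pulldown.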 As to conditions: RBNS binding buffer: 25 mM Tris pH 7.5, 150 mM KCl, 3 mM MgCl2, 0.1% Tween, 0.5 mg/mL BSA, 1 mM DTT; 27 nM protein, 750 pM RNA pool; temperature not stated; high values mean tight binding.
Regarding “GGUCACGUCUCAAUCAACUCAAUUCCCAGGGAAAGCCCUGGUAUAUUCAACAGCUCGCAGUCAAG”, the binding signal (log2 fold change) was found to be 0.107.

As to “GGUCACGUCUCAAUCAACUCUUAAGAGGGGGGGAAAACCCCUUUACCCUCAAACUCAACAGCUCGCAGUCAAG”, the binding signal (log2 fold change) is -0.145.

Take “GGUCACGUCUCAAUCAACUCAAUAGAGGGGGGGAAAACCCCUUUGCCCUCAUACUCAACAGCUCGCAGUCAAG”: the binding signal (log2 fold change) amounted to 0.0388.

Consider “GGUCACGUCUCAAUCAACUCCCAAGAGGGGGGGAAAACCCCUUUACCCUCACAUUCAACAGCUCGCAGUCAAG”, for which the binding signal (log2 fold change) is -0.146.

With “GGUCACGUCUCAAUCAACUCAGUCUCAGGAGUUUACUCCUGUUAAUUCAACAGCUCGCAGUCAAG”, the binding signal (log2 fold change) is -0.335.

For “GGUCACGUCUCAAUCAACUCAAUCCCAGGAGUUUACUCCUGCAAUCUCAACAGCUCGCAGUCAAG”, the binding signal (log2 fold change) was 0.0774.

Turning to “GGUCACGUCUCAAUCAACUCAAUUCCAGGAGUUUGCUCCUGCUAUCUCAACAGCUCGCAGUCAAG”, the binding signal (log2 fold change) was determined as 0.0045.

Regarding “GGUCACGUCUCAAUCAACUCAUCCUCCAGGGAAAGCCCUGGCAUUCUCAACAGCUCGCAGUCAAG”, the binding signal (log2 fold change) came to 0.0968.

In the case of “GGUCACGUCUCAAUCAACUCUAUUUCCAGGGAAAACCCUGGUUAACUCAACAGCUCGCAGUCAAG”, the binding signal (log2 fold change) is 0.0111.

As for “GGUCACGUCUCAAUCAACUCAACUUCCAGGGAAAACCCUGGCUUACUCAACAGCUCGCAGUCAAG”, the binding signal (log2 fold change) turned out to be 0.116.

On to “GGUCACGUCUCAAUCAACUCUUCCCCCAGGGAAAUCCCUGGCUAUGUCAACAGCUCGCAGUCAAG”, for which the binding signal (log2 fold change) was 0.209.

On to “GGUCACGUCUCAAUCAACUCAACUCCCAGGGAAAGCCCUGGUUAACUCAACAGCUCGCAGUCAAG”, for which the binding signal (log2 fold change) is -0.118.

Turning to “GGUCACGUCUCAAUCAACUCAUUUUCAGGAGUUUACUCCUGCUUUGUCAACAGCUCGCAGUCAAG”, the binding signal (log2 fold change) is -0.0307.

As to “GGUCACGUCUCAAUCAACUCAACUCCCAGGGAAACCCCUGGUAUUUUCAACAGCUCGCAGUCAAG”, the binding signal (log2 fold change) was 0.144.

Take “GGUCACGUCUCAAUCAACUCAACUCCCAGGGAAAGCCCUGGUAUACUCAACAGCUCGCAGUCAAG”: the binding signal (log2 fold change) amounted to 0.301.

Turning to “GGUCACGUCUCAAUCAACUCAUUUUCCAGGGAAAUCCCUGGCAUUCUCAACAGCUCGCAGUCAAG”, the binding signal (log2 fold change) was determined as 0.095.

On to “GGUCACGUCUCAAUCAACUCUUUCCCCAGGGAAACCCCUGGUUAACUCAACAGCUCGCAGUCAAG”, for which the binding signal (log2 fold change) is 0.0205.

On to “GGUCACGUCUCAAUCAACUCAACUUCCAGGGAAACCCCUGGUAUUCUCAACAGCUCGCAGUCAAG”, for which the binding signal (log2 fold change) is 0.0421.

For the sequence “GGUCACGUCUCAAUCAACUCAUUCCCAGGAGUUUACUCCUGCAAACUCAACAGCUCGCAGUCAAG”, the binding signal (log2 fold change) came out at 0.0948.

For “GGUCACGUCUCAAUCAACUCAAUUCCCAGGGAAAGCCCUGGCUUUUUCAACAGCUCGCAGUCAAG”, the binding signal (log2 fold change) was -0.246.

As for “GGUCACGUCUCAAUCAACUCUUCCCCCAGGGAAAUCCCUGGUUAUGUCAACAGCUCGCAGUCAAG”, the binding signal (log2 fold change) is -0.214.

On to “GGUCACGUCUCAAUCAACUCAUCUCCCAGGGAAAACCCUGGCAUUCUCAACAGCUCGCAGUCAAG”, for which the binding signal (log2 fold change) is 0.367.

In the case of “GGUCACGUCUCAAUCAACUCAUCGUCCAGGGAAACCCCUGGCUAAUUCAACAGCUCGCAGUCAAG”, the binding signal (log2 fold change) was 0.0909.

As for “GGUCACGUCUCAAUCAACUCAUUCUCAGGAGUUUCCUCCUGUUUUCUCAACAGCUCGCAGUCAAG”, the binding signal (log2 fold change) amounted to 0.1.

For “GGUCACGUCUCAAUCAACUCAUAGGAGGGGGGGAAAACCCCUUUACCCUCACCAUCAACAGCUCGCAGUCAAG”, the binding signal (log2 fold change) is 0.183.

Take “GGUCACGUCUCAAUCAACUCCACGGAGGGGGGGAAAACCCCUUUACCCUCAUUAUCAACAGCUCGCAGUCAAG”: the binding signal (log2 fold change) is -0.262.

“GGUCACGUCUCAAUCAACUCUUCAGAGGGGGGGAAAACCCCUUUACCCUCACAAUCAACAGCUCGCAGUCAAG”: the binding signal (log2 fold change) was determined as 0.311.

In the case of “GGUCACGUCUCAAUCAACUCUUCUUCCAGGGAAAACCCUGGCGUUUUCAACAGCUCGCAGUCAAG”, the binding signal (log2 fold change) was 0.0156.

As to “GGUCACGUCUCAAUCAACUCUUCCCCCAGGGAAAGCCCUGGCAAUGUCAACAGCUCGCAGUCAAG”, the binding signal (log2 fold change) came to 0.242.

Turning to “GGUCACGUCUCAAUCAACUCUAUUCCCAGGGAAAACCCUGGUUAUCUCAACAGCUCGCAGUCAAG”, the binding signal (log2 fold change) amounted to 0.0739.

“GGUCACGUCUCAAUCAACUCAUCAGAGGGGGGGAAAACCCCUUUGCCCUCCAAAUCAACAGCUCGCAGUCAAG”: the binding signal (log2 fold change) was -0.0243.

Turning to “GGUCACGUCUCAAUCAACUCAUUUCCCAGGGAAACCCCUGGUUUUCUCAACAGCUCGCAGUCAAG”, the binding signal (log2 fold change) was -0.0247.

Turning to “GGUCACGUCUCAAUCAACUCAAAAGAGGGGGGGAAAACCCCUUUACCCUCACUAUCAACAGCUCGCAGUCAAG”, the binding signal (log2 fold change) was determined as 0.21.

In the case of “GGUCACGUCUCAAUCAACUCAUAAGAGGGGGGGAAAACCCCUUUGCCCUCACAAUCAACAGCUCGCAGUCAAG”, the binding signal (log2 fold change) was -0.22.

For the sequence “GGUCACGUCUCAAUCAACUCAACUUCCAGGGAAACCCCUGGUUUACUCAACAGCUCGCAGUCAAG”, the binding signal (log2 fold change) is -0.0587.

For the sequence “GGUCACGUCUCAAUCAACUCAUUUCCCAGGGAAAUCCCUGGUUUACUCAACAGCUCGCAGUCAAG”, the binding signal (log2 fold change) stood at 0.149.

Regarding “GGUCACGUCUCAAUCAACUCUUUCCCCAGGGAAAGCCCUGGUAUAUUCAACAGCUCGCAGUCAAG”, the binding signal (log2 fold change) amounted to 0.13.
